# According to PubChem BioAssay AID686970 (National Center for Advancing Translational Sciences (NCATS), 2013):
# In all, about 360,000 compounds went through this assay and about 6,000 (1.7%) were called active. This list was built around the results that the source calls inconclusive (neither active nor inactive); the mix of calls is not that of the screen. The call rests on the fitted dose curve; in most records, active means well fitted cell-killing curve with a large enough effect; inconclusive means small, poorly fitted or top-dose-only effect, or effect the other way; inactive means flat fitted curve, though single readings scatter. No potency is given beside an inconclusive call; the fits are too rough.
# Test: qHTS for induction of synthetic lethality in tumor cells producing 2HG: qHTS for the HT-1080-NT fibrosarcoma cell line;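 further: NT is the 2HG producing partner of a matched IDH1 knockdown line; nearly all actives have a fitted effect of over 55% in size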;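 on activity, negative = less viability: 0% = DMSO-treated cells and -100% = media-only wells without cells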
# Settings: HT-1080-NT fibrosarcoma viability, CellTiter-Glo ATP luminescence, 48 h; activity, negative = less viability: at 46.1 µM (top of the series) unless noted
# In short: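 HT-1080-NT fibrosarcoma cells (2HG-overproducing), 750 cells/well in RPMI with 5% FBS, dosed after 2 h and incubated 48 h at 37C. CellTiter-Glo luminescence normalized to DMSO and no-cell wells; concentration-response curves fitted and classed.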
# Potency means the concentration at half of the fitted maximal effect; tags describe the fitted curve by direction and shape.
Compound,Potency,"activity, negative = less viability"
CCCCOCCCNC(=O)C[C@@H]1C[C@@]2(C(=O)OCC)CCCC=C2N(CCC2=CCCCC2)C1=O,active: 16.4 µM,
Oc1ccc(/C=N/Nc2cc(N3CCOCC3)nc(N3CCOCC3)n2)cc1O,inactive,
CC1CCN(Cc2c(C(=O)N/N=C/c3cc(Cl)ccc3O)nnn2-c2nonc2N)CC1,"inconclusive [cytotoxic, full curve, poor fit]",
COc1cccc(Cn2c(C(C)n3c(C)nc4ccccc43)nc3ccccc32)c1 (centres undefined),"inconclusive [cytotoxic, single point]",
O=C(N/N=C/c1ccc(O)cc1)Nc1cccc2nsnc12,"inconclusive [cytotoxic, partial curve]",
C=CC[n+]1c(-c2ccc(OC)c(OC)c2)csc1NNC(=O)Nc1ccccc1,"inconclusive [cytotoxic, single point]",
CCOC(=O)c1csc(-c2ccc(OC)c(OC)c2)n1,inactive,
O=C(CCl)N=c1sccn1Cc1ccccc1Cl,active: 0.092 µM,
COc1ccc(Cn2c(=O)[nH]c3cc(C(=O)N4CCN(c5ccc(C(C)=O)cc5)CC4)ccc3c2=O)cc1,inactive,
CCC(c1ccc(O)c(O)c1)C(CC)c1ccc(O)c(O)c1 (centres undefined),active: 23.1 µM,
CC(C)c1ccc(C2C3=C(COC3=O)Nc3cc4c(cc32)OCO4)cc1 (centres undefined),active: 1.46 µM,
CCN(CC)c1ccc(NC(=O)c2ccc(=O)[nH]c2)cc1S(=O)(=O)Nc1ccccc1OC,"inconclusive [cytotoxic, full curve]",
COc1ccc(-c2nc3ccc(Cl)cn3c2Cc2cccc(F)c2)cc1OC,"inconclusive [cytotoxic, single point]",
NC1=NC(=O)/C(=C\c2ccsc2)S1,,inconclusive: 15.8%
COc1cc(CN2C[C@@H](CO)O[C@@H](n3cnc4c(NC(C)C)ncnc43)C2)cc(OC)c1OC,"inconclusive [rising, single point]",
O=C(CSc1nc2ccccc2c(=O)n1CC1CCCO1)NCc1ccccc1 (centres undefined),,inconclusive: -19.2% [cytotoxic]
Cn1c(-c2ccc(Cl)nc2)nc2cc(Cl)ccc21,inactive,
CC(C)(C)c1ccc(CC(=O)N2CCC2(C)C(=O)Nc2cnc3ccccc3c2)cc1 (centres undefined),"inconclusive [cytotoxic, single point]",
O=C1c2ccc(Cl)cc2S(=O)(=O)c2cccc(C(=O)N3CCN(c4ccc(Cl)cn4)CC3)c21,"inconclusive [cytotoxic, single point]",
COc1ccc(C)cc1Nc1nc(N)c2cc(OC)c(OC)cc2n1,"inconclusive [cytotoxic, single point]",
CCOc1ccc(-c2nnc(-c3ccncc3)o2)cc1OCC,"inconclusive [rising, partial curve]",
O=C(CSc1ncccn1)NC1CCCc2ccccc21 (centres undefined),,inconclusive: 32.1%
Cc1ccc(C)c(OCc2ccc(C(=O)N3N=C(C(F)F)CC3(O)C(F)F)o2)c1 (centres undefined),"inconclusive [cytotoxic, single point]",
CCc1ccc(C(=O)OCC(=O)c2c(N)n(CC(C)C)c(=O)n(C)c2=O)cc1,"inconclusive [cytotoxic, partial curve]",
C=CCNC(=O)Cc1c(OC)ccc2cc(Br)ccc12,inactive,

Compound,Potency,"activity, negative = less viability"
CCN1CCN(S(=O)(=O)c2ccc(Cl)c(C(=O)Nc3nnc(C)s3)c2)CC1,inactive,
C=C(C)COc1ccc(-c2nc(N)ncc2-c2ccccc2OC)c(O)c1,"inconclusive [cytotoxic, single point]",
COc1cc2c(cc1OC)CN(C(=O)CCCN1C(=O)c3ccccc3C1=O)CC2,inactive,
CC(C)COc1ccc(-c2cc(C(=O)NN)[nH]n2)cc1,inactive,
Cc1ccc(S(=O)(=O)Nc2ccc(-c3nc4ccc(C)cc4s3)cc2)cc1,inactive,
Cc1ccc(-n2c(C)cc(C(=S)N3CCOCC3)c2C)cc1C,"inconclusive [cytotoxic, single point]",
Cc1cc(C(=O)NC2CCCc3c2cnn3-c2ccc(C(C)(C)C)cc2)nn1C (centres undefined),active: 13 µM,
Cc1cc(Br)cc(/C=N/NC(=O)c2ccc3c(c2)OCO3)c1O,"inconclusive [cytotoxic, partial curve]",
Oc1ccc(C[C@H]2CNCCN2CCCCC2CCCCC2)cc1,active: 23.1 µM,
O=C(CSc1nnc(COc2cccc3cccnc23)o1)c1ccc(F)cc1,active: 10 µM,
C=CCn1c(=S)[nH]c2nc3c(cc2c1=O)CCCC3,active: 8.91 µM,
CCOc1ccccc1N(CC(=O)Nc1ccc(OC)c(OC)c1)S(=O)(=O)c1ccccc1,inactive,
CCC(C)(C)n1nnnc1C(c1ccncc1)N1CCC(C)CC1 (centres undefined),inactive,
CCOc1ccc(S(=O)(=O)Nc2ccc3c(c2)n(C)c(=O)n3C)cc1,"inconclusive [cytotoxic, partial curve]",
CCOC(=O)c1cc2nc(Nc3ccc(OC)cc3)sc2s1,"inconclusive [cytotoxic, single point]",
Cc1ccc(NC(=S)Nc2ncccc2C)c(C)c1,"inconclusive [cytotoxic, single point]",
O=C(Nc1ccc(Cl)cc1)N1CCC(c2nc(-c3ccccc3Cl)no2)CC1,"inconclusive [cytotoxic, single point]",
C=CCn1c(O)c(N=NC(=O)OC(C)(C)C)c2ccccc21,inactive,
COc1ccc(-c2cc(C(F)(F)F)nc(-n3cc(Cl)cn3)n2)cc1,"inconclusive [rising, single point]",
OC1CCN(c2cc(-c3ccccc3)nc3cc(-c4ccc(F)cc4)nn23)CC1,inactive,
CC(CC(=O)Nc1ccc(Cl)c(S(=O)(=O)N2CCOCC2)c1)c1ccccc1 (centres undefined),active: 18.4 µM,
COc1ccc(CCN2CC(C(=O)N(C)Cc3ccc(C)o3)CCC2=O)cc1 (centres undefined),,inconclusive: 31.7%
O=C(Cn1c2ccccc2c2nc3n(c(=O)c21)CCCS3)Nc1ccccc1,"inconclusive [cytotoxic, partial curve]",
N#CC(C#N)=Cc1c[nH]c(=O)c(C#N)c1Nc1ccccc1,inactive,
CC1(C)CN=c2s/c(=C\c3ccc(Cl)cc3)c(=O)n2C1,"inconclusive [cytotoxic, single point]",

Compound,Potency,"activity, negative = less viability"
CCOc1ccc(CCN2C(=O)C(=O)N([C@@H](CC(C)C)CN3CCC[C@H]3CN3C(=O)C(=O)NC[C@@H]3CC(C)C)C[C@@H]2CC(C)C)cc1,inactive,
CCCc1cc(=O)oc2cc(OCC(=O)NC3CCN(Cc4ccccc4)CC3)ccc12,inactive,
COc1cc(Cl)c(CN2CCC(CO)(CCOc3ccccc3)CC2)cc1OC,inactive,
Cc1cccc(NC(=O)c2nc(S(=O)(=O)Cc3ccccc3)ncc2Cl)c1,active: 6.51 µM,
CC(O)(c1ccccc1)c1nc(-c2ccccc2)cs1 (centres undefined),"inconclusive [cytotoxic, single point]",
CCCOc1ncnc2c1[nH]c1ccc(C)cc12,"inconclusive [cytotoxic, single point]",
COc1cc2c(cc1OC)CN(C(C)C(=O)N1CCc3ccccc31)CC2 (centres undefined),"inconclusive [cytotoxic, single point]",
C[C@@]12CCC=C[C@H]1[C@H](c1ccc3ccccc3c1)N(Cc1ccccc1)C2=O,"inconclusive [cytotoxic, single point]",
O=C1N(C2CCCC2)C[C@@H]2C[C@@H](c3cccn3-c3nccs3)N3CCC[C@@]123,inactive,
Cc1cccc(NC(=O)c2ccc([N+](=O)[O-])s2)n1,"inconclusive [cytotoxic, single point]",
Oc1ccc(-c2nc(-c3ccc(O)c(O)c3)cs2)cc1,"inconclusive [cytotoxic, full curve]",
O=C(Nc1ccc(Oc2ccccc2)nc1)C1CCCCN1Cc1ccco1 (centres undefined),"inconclusive [cytotoxic, full curve]",
NNc1nc(-c2ccccc2)cc(-c2ccccc2O)n1,"inconclusive [cytotoxic, single point]",
COc1cc(/C=C(/C#N)c2nc3ccccc3[nH]2)ccc1Oc1ncccc1[N+](=O)[O-],"inconclusive [cytotoxic, single point]",
O=C(NCc1cccnc1)c1cccc(NS(=O)(=O)c2ccc(Br)cc2)c1,active: 4.61 µM,
CCOc1cc(/C=C/c2nc3ccccc3s2)ccc1OCC(=O)N1CCOCC1,inactive,
COc1ccc(-c2cc3nc(C)n(N)c(=O)c3s2)cc1,active: 4.11 µM,
O=C(c1ccc(Cl)cc1)C(Cn1cncn1)C(Sc1ccccc1)c1ccccc1 (centres undefined),"inconclusive [cytotoxic, single point]",
O=C(N/N=C/c1ccc([N+](=O)[O-])o1)c1cc(-c2ccncc2)nc2ccccc12,active: 3.98 µM,
CCOc1ccccc1NC(=O)Cn1nnc(C(=O)NCc2ccc3c(c2)OCO3)c1N,"inconclusive [cytotoxic, partial curve]",
O=C(NNC(=O)c1ccco1)c1cccc([N+](=O)[O-])c1,,inconclusive: 31.8%
COc1ccc(CCn2c(C)cc(C(=O)CCl)c2C)cc1OC,"inconclusive [cytotoxic, single point]",
Cc1cc(C)c(S(=O)(=O)Nc2cccc(C(=O)O)c2)cc1S(=O)(=O)Nc1cccc(C(=O)O)c1,inactive,
Cc1cccc(N2CCN(C(=S)c3ccc(-c4ccccc4[N+](=O)[O-])o3)CC2)c1,"inconclusive [cytotoxic, single point]",
